The source of these data is the supplement of paper PMC9542798.

Holding throughout (assay): minimum inhibitory concentration
Compound in test [1]: CNC(C)C1CCC(N)C(OC2C(N)CC(N)C(OC3OCC(C)(O)C(NC)C3O)C2O)O1 [Gentamicin]
The procedure:
(§1)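 Broth microdilution MIC per ISO 10932 on precoated VetMIC Lact-1 plates (tylosin, vancomycin and ampicillin plates prepared manually) against lactic acid bacteria and bifidobacteria isolates. Plates were read visually after 48 h anaerobic incubation (bifidobacteria 72 h; enterococci and staphylococci 24 h aerobic) at species-specific temperatures of 30 or 37 °C. Values prefixed with < or > are outside the tested dilution range.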

Compound in test [2]: CC[C@H]1OC(=O)[C@H](C)[C@@H](O[C@H]2C[C@@](C)(OC)[C@@H](O)[C@H](C)O2)[C@H](C)[C@@H](O[C@@H]2O[C@H](C)C[C@H](N(C)C)[C@H]2O)[C@](C)(O)C[C@@H](C)C(=O)[C@H](C)[C@@H](O)[C@]1(C)O [Erythromycin]
The procedure: as §1

Compound in test [3]: NC[C@H]1O[C@H](O[C@H]2[C@H](O)[C@@H](O[C@H]3O[C@H](CO)[C@@H](O)[C@H](N)[C@H]3O)[C@H](N)C[C@@H]2N)[C@H](O)[C@@H](O)[C@@H]1O [Kanamycin]
How it is done: as §1

Compound in test [4]: CN(C)[C@@H]1C(O)=C(C(N)=O)C(=O)[C@@]2(O)C(O)=C3C(=O)c4c(O)cccc4[C@@](C)(O)[C@H]3C[C@@H]12 [Tetracycline]
The procedure:
as §1

Compound in test [5]: CN[C@@H]1[C@H](O[C@H]2[C@H](O[C@H]3[C@H](O)[C@@H](O)[C@H](N=C(N)N)[C@@H](O)[C@@H]3N=C(N)N)O[C@@H](C)[C@]2(O)C=O)O[C@@H](CO)[C@H](O)[C@H]1O [Streptomycin]
The procedure:
as §1

Compound in test [6]: CCC[C@@H]1C[C@@H](C(=O)N[C@@H]([C@H]2O[C@H](SC)[C@H](O)[C@@H](O)[C@H]2O)[C@H](C)Cl)N(C)C1 [Clindamycin]
The procedure: as §1

Compound in test [7]: O=C(N[C@H](CO)[C@H](O)c1ccc([N+](=O)[O-])cc1)C(Cl)Cl [Chloramphenicol]
How it is done: as §1

Compound in test [8]: CN[C@H](CC(C)C)C(=O)N[C@H]1C(=O)N[C@@H](CC(N)=O)C(=O)N[C@H]2C(=O)N[C@H]3C(=O)N[C@H](C(=O)N[C@H](C(=O)O)c4cc(O)cc(O)c4-c4cc3ccc4O)[C@H](O)c3ccc(c(Cl)c3)Oc3cc2cc(c3O[C@@H]2O[C@H](CO)[C@@H](O)[C@H](O)[C@H]2O[C@H]2C[C@](C)(N)[C@H](O)[C@H](C)O2)Oc2ccc(cc2Cl)[C@H]1O [Vancomycin]
The procedure: as §1

Compound in test [9]: NC[C@@H]1O[C@H](O[C@H]2[C@@H](O)[C@H](O[C@@H]3[C@@H](O)[C@H](N)C[C@H](N)[C@H]3O[C@H]3O[C@H](CN)[C@@H](O)[C@H](O)[C@H]3N)O[C@@H]2CO)[C@H](N)[C@@H](O)[C@@H]1O [Neomycin]
How it is done: as §1

Compound in test [10]: CC1(C)S[C@@H]2[C@H](NC(=O)[C@H](N)c3ccccc3)C(=O)N2[C@H]1C(=O)O [Ampicillin]
How it is done:
as §1
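Further: isolates derived from commercial starter, protective, probiotic or feed-additive cultures, from fermented products, from human gut mucosa or feces, and from human milk or colostrum.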

For the test system “Bifidobacterium longum IM753 (strain group: human intestinal mucosa or faeces)”, the minimum inhibitory concentration in test [1] was determined as 64 µg/mL; in test [2], 0.12 µg/mL; in test [3], 512 µg/mL; in test [4], 16 µg/mL; in test [5] it was 128 µg/mL; in [6], 0.12 µg/mL. In addition, the minimum inhibitory concentration in test [7] amounted to 2 µg/mL; in test [8], 0.5 µg/mL; in test [9] it was 64 µg/mL; in test [10], 0.125 µg/mL.
Consider “Bifidobacterium longum IM802 (strain group: human intestinal mucosa or faeces)”, for which the minimum inhibitory concentration turned out to be 128 µg/mL in [1]; 0.25 µg/mL in test [2]; 1020 µg/mL in test [3]; 1 µg/mL in [4]; 64 µg/mL in test [5]; 0.12 µg/mL in [6]. For the same test system, the minimum inhibitory concentration in test [7] came to 4 µg/mL; in test [8], 0.5 µg/mL; in test [9], 256 µg/mL; in test [10], 0.5 µg/mL.
In the case of “Bifidobacterium longum IM949 (strain group: human intestinal mucosa or faeces)”, the minimum inhibitory concentration in test [1] was 32 µg/mL; in [2], 0.25 µg/mL; in test [3], 256 µg/mL; in [4] it was 2 µg/mL; in test [5] it was greater than 256 µg/mL; in test [6], 0.12 µg/mL. The minimum inhibitory concentration in test [7] was 2 µg/mL; in [8], 0.5 µg/mL; in [9], 64 µg/mL; in [10] it was 1 µg/mL.
In the case of “Bifidobacterium longum IM964 (strain group: human intestinal mucosa or faeces)”, the minimum inhibitory concentration was found to be 8 µg/mL in test [1]; 0.06 µg/mL in [2]; 256 µg/mL in test [3]; 0.25 µg/mL in test [4]; 8 µg/mL in [5]; 0.06 µg/mL in test [6]. For the same test system, the minimum inhibitory concentration in test [7] is 0.5 µg/mL; in [8], 0.5 µg/mL; in test [9], 32 µg/mL; in test [10], 0.125 µg/mL.
As to “Bifidobacterium longum IM970 (strain group: human intestinal mucosa or faeces)”, the minimum inhibitory concentration in test [1] is 32 µg/mL; in [2] it was 0.06 µg/mL; in [3] it was 256 µg/mL; in test [4], 0.5 µg/mL; in test [5], greater than 256 µg/mL; in test [6] it was 0.06 µg/mL. The minimum inhibitory concentration in [7] is 0.5 µg/mL; in test [8], 1 µg/mL; in test [9], 64 µg/mL; in [10] it was less than 0.032 µg/mL.
Turning to “Bifidobacterium longum IM982 (strain group: human intestinal mucosa or faeces)”, the minimum inhibitory concentration in test [1] came to 32 µg/mL; in test [2], 0.12 µg/mL; in test [3], 512 µg/mL; in test [4], 1 µg/mL; in test [5], 32 µg/mL; in [6], 0.06 µg/mL. In addition, the minimum inhibitory concentration in test [7] is 1 µg/mL; in test [8], less than 0.25 µg/mL; in test [9] it was 128 µg/mL; in [10], 0.5 µg/mL.
For the test system “Bifidobacterium longum IM1337 (strain group: probiotic strains)”, the minimum inhibitory concentration in test [1] is 4 µg/mL; in test [2] it was 0.25 µg/mL; in [3] it was 32 µg/mL; in [4], 1 µg/mL; in [5] it was 16 µg/mL; in test [6] it was 0.06 µg/mL. The minimum inhibitory concentration in test [7] is 1 µg/mL; in [8], 0.5 µg/mL; in test [9] it was 16 µg/mL; in test [10], 0.063 µg/mL.
For “Bifidobacterium sp. IM962 (strain group: human intestinal mucosa or faeces)”, the minimum inhibitory concentration in [1] turned out to be 16 µg/mL; in test [2], 0.12 µg/mL; in test [3] it was 128 µg/mL; in test [4], 1 µg/mL; in [5], 16 µg/mL; in test [6] it was 0.06 µg/mL. The minimum inhibitory concentration was found to be 2 µg/mL in [7], 0.5 µg/mL in [8], 16 µg/mL in test [9] and 2 µg/mL in test [10].
As for “Lacticaseibacillus casei IM1380 (strain group: probiotic strains)”, the minimum inhibitory concentration in test [1] was 1 µg/mL; in test [2] it was 0.25 µg/mL; in test [3], 32 µg/mL; in test [4] it was 2 µg/mL; in test [5] it was 16 µg/mL; in [6], 4 µg/mL. Further, the minimum inhibitory concentration in test [7] is 8 µg/mL; in [8], greater than 128 µg/mL; in [9], 2 µg/mL; in test [10], 1 µg/mL.
“Lacticaseibacillus paracasei IM1474 (strain group: starter cultures)”: the minimum inhibitory concentration in test [1] is 2 µg/mL; in [2] it was 0.12 µg/mL; in [3], 32 µg/mL; in test [4] it was 1 µg/mL; in test [5], 16 µg/mL; in test [6], 0.12 µg/mL. Moreover, the minimum inhibitory concentration is 4 µg/mL in test [7], greater than 128 µg/mL in test [8], 4 µg/mL in [9] and 4 µg/mL in [10].
As for “Lacticaseibacillus rhamnosus IM827 (strain group: human milk or colostrum)”, the minimum inhibitory concentration in test [1] was determined as 4 µg/mL; in [2] it was 0.25 µg/mL; in [3], 64 µg/mL; in [4], 1 µg/mL; in [5], 16 µg/mL; in test [6], 1 µg/mL. Further, the minimum inhibitory concentration is 8 µg/mL in test [7], greater than 128 µg/mL in [8], 4 µg/mL in test [9] and 4 µg/mL in test [10].
Take “Lacticaseibacillus rhamnosus IM1433 (strain group: starter cultures)”: the minimum inhibitory concentration in test [1] is 2 µg/mL; in [2] it was greater than 8 µg/mL; in test [3], 16 µg/mL; in [4], 0.5 µg/mL; in test [5], greater than 256 µg/mL; in test [6], greater than 16 µg/mL. Besides, the minimum inhibitory concentration in test [7] is 4 µg/mL; in test [8] it was greater than 128 µg/mL; in test [9], 4 µg/mL; in test [10], 2 µg/mL.
Regarding “Lactiplantibacillus plantarum IM943 (strain group: human milk or colostrum)”, the minimum inhibitory concentration in [1] was 4 µg/mL; in test [2], 0.5 µg/mL; in test [3], 128 µg/mL; in [4] it was 32 µg/mL; in test [5], 64 µg/mL; in [6] it was 0.12 µg/mL. The minimum inhibitory concentration was 4 µg/mL in test [7], greater than 128 µg/mL in test [8], 4 µg/mL in test [9] and 4 µg/mL in test [10].
“Lactiplantibacillus plantarum IM1422 (strain group: starter cultures)”: the minimum inhibitory concentration in [1] amounted to 4 µg/mL; in test [2], 0.5 µg/mL; in test [3], 64 µg/mL; in test [4], 16 µg/mL; in test [5], 64 µg/mL; in [6], 1 µg/mL. For the same test system, the minimum inhibitory concentration in test [7] was 8 µg/mL; in test [8], greater than 128 µg/mL; in [9], 4 µg/mL; in test [10], 2 µg/mL.
With “Lactiplantibacillus plantarum IM1468 (strain group: starter cultures)”, the minimum inhibitory concentration in [1] was found to be 8 µg/mL; in test [2], 0.5 µg/mL; in test [3], 128 µg/mL; in test [4], 16 µg/mL; in [5], 64 µg/mL; in [6], 4 µg/mL. Moreover, the minimum inhibitory concentration in [7] is 8 µg/mL; in [8], greater than 128 µg/mL; in test [9] it was 8 µg/mL; in test [10], 0.5 µg/mL.
